The supplement of paper PMC10126150
Values marked as one replicate rest on one cluster of the flow cell; about a third of the high ones do not repeat.

Tested on: ATP
Experiment: switch fluorescence ratio, 500 uM ATP over buffer (Cy3 cluster intensity, sum of 5 cycles each) (fold (ratio)); higher = stronger signal-on switching upon ATP binding; sequences stand for … in TCGTCGGCAGCGTCAGATGTGTATAAGAGACAGTTTTTTTTTTTTTTTTTTTTTTTTT…TC
Settings: aptamer strand: ATP DNA aptamer (quencher-CACCTGGGGGAGTATTGCGGAGGAAGG + anchor), 100 nM annealed; ATP concentration: 500 uM; one replicate
Method in brief: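 Exposure to 500 uM ATP lasted 15 min at 22 °C before imaging, and a selection-buffer image was taken beforehand, for Cy3-labelled switching-strand clusters on a modified Illumina MiSeq flow-cell annealed to 100 nM quencher-labelled ATP aptamer. Five buffer/ATP cycles were run with NaOH stripping and re-annealing between them. The fluorescence ratio per cluster is summed target-cycle over summed buffer-cycle Cy3 intensity, averaged per switch-domain sequence. Clusters outside 100-1000 RFU were excluded.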

Sequence	switch fluorescence ratio
GCTCTATATG	1
GGTTGTTTG	0.957
GGTAGAGCAC	1
TGGATATCGT	0.99
GGCAAAGCCG	1.04
TGGAAAAAGG	1.13
ATGGATGTCT	1.02
TTGTAGTCCC	1.03
AGTGTAGGTG	1.05
TTTATCATC	1.03
GGCAGAATCA	0.991
GCATATAGT	1.08
AAATGGTGCG	0.985
GATTAAGTCT	0.993
AAATTAGAG	0.996
GGTGTGGGAG	1.04
TGGAGTGTTA	1.01
CGAAGCCCTG	1.03
AAGAGGATCT	1.01
CATTTCATTC	0.995
AGGGTGCTTT	0.962
AGTATGGTTC	0.984
AATGGCTT	1.01
GATGATATT	0.99

Sequence	switch fluorescence ratio
ATTCCATAGT	0.983
CACGTAAACA	1.23
GCAATAGTCA	5.29
ATTAGGACTG	1.02
TTCTTTAAGC	1.06
AAATACGGAA	1.08
AAGGGCCGTT	1.04
ATATCTTGGC	1.01
GACTTATACC	1.11
AGTCCCTGGT	1.03
AAGACAAATG	0.953
TTGTTCATG	1.02
TTCCGAGCTG	1.58
TGGCCCGGTT	0.966
GGCGCTGTGG	1.03
TCACCGCGGT	1.09
GGAAGAGCAA	1.54
TTAAATTAAA	0.957
TCGGTCAGGG	1.04
AGGTAAAAGG	0.96
GCTGATGAGT	1.01
AATCTATGGT	0.979
CCATAGGGAG	1.02
GTTCGGCATG	1.03

Sequence	switch fluorescence ratio
AGACTTTAT	0.995
AATCCCAAGT	1
GGTCGATAGA	1
TTTTTATCCG	1.08
ATGAGAGTCA	0.996
ACAATCGTA	1
AGGATTTTGA	0.998
ACATTTCCTA	1.02
CTCCCTGATT	1.05
AGCGCCAAAA	1.01
TCGAGATCTG	0.996
GGTCTGAGAT	1.01
ATTAAGTATG	0.967
CATATTGGAA	0.989
CACGACTGGT	0.973
GCATATTCGT	1
TGGACATAGA	1.01
GACGAACGTC	0.969
TAAAGCCTGT	1.01
TCTCAGGTAT	0.976
TTAACTAGG	0.981
ATAGTAATGT	0.97
TCTACGTACT	1.67
GGATAATTAA	0.995

Sequence	switch fluorescence ratio
TGGCATCTGC	1
CTGGAAGGCC	1
TCGGGACCTT	1.04
AGCAACCGAC	3.32
CACCAAAATC	1.4
TGCTATTAAG	1.01
AGCAATTGTA	1.14
CGATGTGATA	1.18
TCTGGCCTCC	1.21
TAAAATCGGT	1.06
TTTTGTGTG	0.967
TTACGATGT	0.965
ATTTACAGTG	1.11
CCTGGGAGAC	1.48
TCATGCGAGG	0.995
CCCATTCGC	1.11
AGGGATTGCA	0.969
GCTTGTGAGA	1.01
AGGGGGACT	0.995
ACGTTACAAT	1.33
CGTGTACCCT	1.03
